# Laboratory results published in PubChem BioAssay AID588855 (National Center for Advancing Translational Sciences (NCATS), 2011).
# Where “and” joins values, the source holds several entries; their conditions need not be identical. Identical values can stand only once. Screen size: about 410,000 compounds; about 5,000 (1.2%) were called active. The inconclusive results got no clear call from the source; some entries with a clear call stand among them for comparison. Calls follow the shape of the dose curve; as a rule, active = well fitted inhibition curve with a large enough effect; inconclusive = small, poorly fitted or top-dose-only effect; inactive = no such curve, though single readings can be large or run the other way. Potencies beside an inconclusive call are fits to weak or partial responses and may not hold up.
# Assay: qHTS for Inhibitors of TGF-b; also: nearly all actives have a fitted effect of over 65% in size
# Conditions: HepG2 CAGA-GFP TGF-b/SMAD3 reporter, GFP fluorescence, 18 h, TGF-beta stimulated, 500 pg/mL final; series mostly up to 46.1 µM
# In short: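 Using HEPG2 CAGA-GFP reporter cells at 1000 cells/well, we pinned test compounds, stimulated with recombinant TGF-beta (500 pg/mL final) and measured total well GFP after 18 h.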
# Potency is read from the fitted curve at half-maximal effect; tags tell the direction and shape of the fitted curve.
row,SMILES,Potency
1,CC(=O)N(Cc1c(C)nn(-c2ccccc2)c1Cl)c1ccc(Cl)cc1,inactive
2,O=C(CN1C(=O)COc2ccc(Cl)cc21)Nc1ccc(F)cc1,inactive
3,CC1CCCCN1C(=O)c1cc2nc(-c3ccccc3)cc(-c3ccccc3)n2n1 (centres undefined),"inconclusive: 35.5 µM [inhibitor, single point]"
4,CC1=C(c2ccc(C)c(C)c2)S(=O)(=O)N=C1N1CCC(C(=O)N2CCC(C)CC2)CC1,"inconclusive: 31.6 µM [inhibitor, single point]"
5,Cc1ccccc1OCc1ccc(-c2nc(C#N)c(NCc3cccnc3)o2)o1,"inconclusive: 35.5 µM [inhibitor, single point]"
6,CCOC(=O)/C=C/C(=O)Nc1ccc(S(=O)(=O)Nc2c(C)cc(C)cc2C)cc1,"inconclusive: 22.4 µM [inhibitor, single point]"
7,CC(C)Oc1ccccc1NC(=O)CSc1nc2ccccc2c(=O)n1C,"inconclusive: 12.6 µM [inhibitor, single point]"
8,COc1ccccc1N1CCN(C(=O)c2cccc3c(=O)c(C)c(-c4ccccc4)oc23)CC1,"inconclusive: 8.91 µM [inhibitor, partial curve]"
9,Cc1ccccc1NC(=O)c1sc(NC(=O)C2CC2)nc1C,"inconclusive: 35.5 µM [inhibitor, single point]"
10,O=C(CCc1ccccc1)NNC(=S)NC(=O)c1ccccc1,"inconclusive: 7.94 µM [inhibitor, partial curve]"
11,O=C(/C=N/NC(=O)c1ccc(Cl)cc1Cl)c1ccccc1,"inconclusive: 12.6 µM [inhibitor, single point]"
12,CCC(NC(=O)c1ccccc1O)c1ccccc1 (centres undefined),inactive
13,CCc1ccc(C(=O)c2cn(CC(=O)Nc3ccc4c(c3)OCO4)c3ccc(OC)cc3c2=O)cc1,inactive
14,CC(C(=O)NC1CCCCC1)N1C(=O)c2cccc3cccc1c23 (centres undefined),"inconclusive: 14.1 µM [inhibitor, single point]"
15,Cn1c(SCC(=O)C(C)(C)C)nnc1-c1ccncc1,"inconclusive: 35.5 µM [inhibitor, single point]"
16,COc1ccc2nc3oc(C(=O)NC4CCN(Cc5ccccc5)CC4)cc3cc2c1,inactive
17,Cc1ccc2oc3nc(C)c(C(=O)O)cc3c(=O)c2c1,"inconclusive: 0.316 µM [inhibitor, partial curve, poor fit]"
18,COc1cc(NC(=O)c2cccc3c2C(=O)N(C2CCCCC2)C3)cc(OC)c1OC,"inconclusive: 35.5 µM [inhibitor, partial curve, poor fit] and inconclusive: 4.47 µM [inhibitor, full curve, poor fit]"
19,Cc1ccc(Cc2nnc(SCC(=O)Nc3ccccc3)[nH]c2=O)cc1,"inconclusive: 5.62 µM [inhibitor, single point]"
20,O=C1/C(=C\c2ccccc2)CCC/C1=C/c1ccccc1,"inconclusive: 25.1 µM [inhibitor, single point]"
21,Fc1ccc([C@@H]2CCNC[C@H]2COc2ccc3c(c2)OCO3)cc1,"inconclusive: 35.5 µM [inhibitor, single point]"
22,CCn1c(C)c(P(c2ccccc2)c2ccccc2)[n+]2ccccc12,inactive

row,SMILES,Potency
1,COc1ccc(CCNc2nc(N3CCCCC3)nc(N3CCCCC3)n2)cc1OC,"inconclusive: 35.5 µM [inhibitor, single point]"
2,CCC(C(=O)Nc1sc(C(N)=O)c(C)c1C(=O)OC)c1ccccc1 (centres undefined),"inconclusive: 17.8 µM [inhibitor, single point]"
3,CCN1C(=O)C(O)(CC(=O)c2ccc(-n3cccc3)cc2)c2ccccc21 (centres undefined),inactive
4,Cc1nc(SCC(=O)NCC2CCCO2)c2c3c(sc2n1)CCCC3 (centres undefined),"inconclusive: 35.5 µM [inhibitor, single point]"
5,CC(C)(C=O)C1=CC(=O)c2ccccc2C1=O,"inconclusive: 22.4 µM [inhibitor, single point]"
6,CCOc1ccc(OCC)c(NC(=O)C2COc3ccccc3O2)c1 (centres undefined),inactive
7,CN(C)CCCNc1cc(C(C)(C)C)nc2c(-c3ccc(Cl)cc3)cnn12,active: 22.4 µM
8,O=C(/C=C/c1ccc(F)cc1)c1ccccc1Br,"inconclusive: 22.4 µM [inhibitor, single point]"
9,CCOC(=O)N1CCC(NC(=O)C2CCN(c3nc(-c4ccc(OC)cc4)no3)CC2)CC1,inactive
10,Cn1cc(C(=O)N/N=C/c2ccc(Br)c([N+](=O)[O-])c2)c2ccccc21,"inconclusive: 3.98 µM [inhibitor, partial curve, poor fit]"
11,COc1ccc(-c2ccccc2)c2oc(-c3ccco3)cc(=O)c12,inactive
12,Cc1nc2c(C(=O)NCCCN(CC(C)C)CC(C)C)cnn2c(C)c1Cc1c(F)cccc1Cl,inactive
13,Cc1c(C#N)c(NC(=O)C(C)C)n(Cc2ccccc2)c1C,inactive
14,Cc1ccc(CNC(=S)NC2CCC(C(C)(C)C)CC2)cc1 (centres undefined),"inconclusive: 35.5 µM [inhibitor, single point]"
15,Cc1ccc(NC(=O)CN2C(=O)CCc3cc(S(=O)(=O)N4CCOCC4)ccc32)cc1F,"inconclusive: 14.1 µM [inhibitor, partial curve]"
16,COc1ccc(-n2nnc3c(=O)n(Cc4cc(C)ccc4C)cnc32)cc1,"inconclusive: 20 µM [inhibitor, partial curve, poor fit]"
17,COc1ccc(OC)c(CNC(=O)c2ccc(Sc3ccc(C)cc3)c(N)c2)c1,"inconclusive: 35.5 µM [inhibitor, single point]"
18,CC(C)(C)OC(=O)CNC(=O)c1[nH]cnc1C(=O)Nc1ccc(CNC(=O)OC(C)(C)C)cc1,"inconclusive: 14.1 µM [inhibitor, single point]"
19,CCCc1nn2c(=O)cc(COC(=O)c3ccccc3NC(=O)COc3ccccc3F)nc2s1,inactive
20,CCN(C(=O)c1ccco1)c1nc(-c2ccc(OC)cc2)cs1,inactive
21,CC1(C)c2[nH]c3ccccc3c2C[C@@H]2C(=O)N(c3cc(F)ccc3F)C(=O)N21,inactive
22,Cc1cccc(CN2CCC(CNC(=O)Nc3ccc(F)c(Cl)c3)CC2)c1,"inconclusive: 35.5 µM [inhibitor, single point]"
